Where “and” joins values, the source holds several entries; their conditions need not be identical. Identical values can stand only once. Screen size: about 110,000 compounds; about 230 (0.21%) showed an effect of 50% or more. This is one part of the list.
Target: DPAP1 (Plasmodium falciparum, UniProt Q8IIJ9)
Assay: primary screen, percent inhibition; read by cleavage of a fluorogenic dipeptide substrate; higher = more effect of the substance
Parameters: species or system P. falciparum D10 trophozoite lysates; single well
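Further: 30 min substrate incubation versus DMSO and 10 µM JCP410 controls.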

Chain of DPAP1 (Q8IIJ9 whole entry, looked up): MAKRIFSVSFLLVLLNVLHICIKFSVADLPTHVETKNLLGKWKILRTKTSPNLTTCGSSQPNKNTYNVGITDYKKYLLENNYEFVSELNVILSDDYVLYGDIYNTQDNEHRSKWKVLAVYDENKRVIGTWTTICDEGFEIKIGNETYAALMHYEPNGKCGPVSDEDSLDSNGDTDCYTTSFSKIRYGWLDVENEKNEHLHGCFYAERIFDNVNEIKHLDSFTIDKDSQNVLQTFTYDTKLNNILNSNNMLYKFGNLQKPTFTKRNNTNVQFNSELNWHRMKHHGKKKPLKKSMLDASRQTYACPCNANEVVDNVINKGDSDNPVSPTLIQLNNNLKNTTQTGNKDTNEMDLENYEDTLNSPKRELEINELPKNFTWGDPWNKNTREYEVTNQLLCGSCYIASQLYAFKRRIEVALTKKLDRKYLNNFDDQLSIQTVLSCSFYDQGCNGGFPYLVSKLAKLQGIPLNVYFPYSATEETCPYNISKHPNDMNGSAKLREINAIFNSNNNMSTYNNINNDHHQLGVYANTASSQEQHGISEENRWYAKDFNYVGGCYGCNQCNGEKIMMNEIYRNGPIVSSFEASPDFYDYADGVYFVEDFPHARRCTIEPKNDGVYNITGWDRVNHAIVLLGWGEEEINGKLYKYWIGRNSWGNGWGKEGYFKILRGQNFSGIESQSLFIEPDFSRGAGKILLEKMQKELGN

Point of comparison: `CCCCc1[nH]nc2c1/C(=N\OCC)CC(C)(C)C2`, “% Inhibition @ 10 uM” value 0.878%. Against it:
- CCc1nn(C(CC)C(=O)NCc2cccc(OC)c2)c(=O)c2cc3oc(C)cc3n12 (centres unmarked) — higher, 1.8%
- O=C(Nc1nc(-c2ccccc2)cs1)c1cccc(Cl)c1 — lower, -2.32%
- O=C(NC1CCCc2ccccc21)C1CCN(c2c(N3CCCC3)c(=O)c2=O)CC1 (centres unmarked) — higher, 3.07%
- COc1ccc(OC)c(CCNCc2c(C(=O)O)c(C)n(Cc3c(F)cccc3Cl)c2C)c1 — lower, -0.23%
- Cc1scc(C(=O)c2csc(C)c2C)c1C — lower, -8.59%
- COc1ccccc1N1CCN(C(=O)CN(C2CCCCC2)S(=O)(=O)c2ccccc2)CC1 — lower, -12.7%
- CC(C)C(C)(O)C#CCN1CCOCC1 (centres unmarked) — higher, 2.13%
- CC(CCc1ccccc1)NC(=O)C1CCN(c2nnc(N3CCCC3=O)s2)CC1 (centres unmarked) — lower, -4.68%
- Fc1ccc(CN2CCN(c3ncccn3)CC2)cc1Br — higher, 2.23%
- COc1ccccc1Cn1ccn(CC(=O)c2ccc(F)cc2)c(=O)c1=O — lower, -3.8%
- O=C(O)/C=C/C(=O)Nc1cccnc1 — lower, -0.127%
- N#Cc1c(NC(=O)CSc2n[nH]c(-c3ccncc3)n2)sc2c1CCCC2 — higher, 0.9%
- COc1cc(C2C(C#N)=C(N)Oc3[nH]nc(-c4ccccc4)c32)cc2c1OCO2 (centres unmarked) — lower, -2.77%
- O=C(N/C(=C/c1cccc2ccccc12)C(=O)N1CCCCC1)c1ccccc1 — lower, 0.687%
- Cc1[nH]c2ccc(C(=O)O)cc2c1CCN — lower, -4.24%
- NC1=NC(=O)/C(=C/c2ccc(-c3cccc(Cl)c3)o2)S1 — higher, 6.24%
- CCC(=O)c1cn(CC(=O)N2CCc3ccccc3C2)c2ccccc12 — lower, -6.94%
- Cc1ccccc1Cc1c(C)nc2nc(SCC(=O)N3CCC4(CC3)OCCO4)nn2c1C — higher, 5.4%
- Cc1ccc2nc(N(CCCN(C)C)C(=O)c3nc4ccccc4s3)sc2c1 — higher, 6.08%
- CCOC(=O)c1ccc(-c2ccc(/C=C3\C(=N)N4N=C(S(C)(=O)=O)SC4=NC3=O)o2)cc1 — lower, -7.21%
- CCOC(=O)c1c(N2CCOCC2)cc(C)nc1C — lower, -2.42%
- CN1C(=O)c2ccc(NC(=O)COc3ccc(Br)cc3)cc2C1=O — higher, 1.19%
- CCS(=O)(=O)c1nc(S(=O)(=O)c2ccc(C)cc2)c(NCCCN2CCCC2=O)s1 — lower, -4.04%
- O=S(=O)(NC1CCCCC1NC1CCCCC1)c1ccccc1 (centres unmarked) — lower, -0.551%
- Cc1cccc(NC(=O)c2sc3nc4c(cc3c2N)CCC4)c1C — higher, 2.65%
- CN1CCN(Cc2ccc(Cl)cc2)CC1 — lower, -5.57%
- Cc1nc2ccc(S(=O)(=O)NCC(=O)NCc3ccccn3)cc2s1 — lower, -2.45%
- O=C(CCn1c(=O)c2sccc2n(CC(=O)NCCC2=CCCCC2)c1=O)NCc1ccccc1 — lower, -1.84%
- COc1ccc(S(=O)(=O)N2CC(C)N(S(=O)(=O)c3ccc(OC)cc3)CC2C)cc1 (centres unmarked) — higher, 2.42%
- COc1ccccc1OC(CCN1CCN(C)CC1)c1ccccc1 (centres unmarked) — lower, -2.29%
- O=c1sc2ccccc2n1Cc1cccc2ccccc12 — lower, -3.04%
- CN1CCCC1CCNC1CCC(c2ccccc2)CC1 (centres unmarked) — lower, -6.82%
- c1ccc(OCCCCCCN2CCNCC2)cc1 — higher, 7.67%
- Cc1nnc(SCC(=O)NCc2ccccn2)c2nn(-c3ccccc3)c(C)c12 — higher, 1.4%
- Cc1cc(C)c(S(=O)(=O)Nc2ccc(C)c(Cl)c2)c(C)c1 — lower, -3.04%
- c1nc(NCc2ccc3c(c2)OCO3)c2nc3n(c2n1)CCCCC3 — lower, -3.77%
- CCCCNC(=O)CS(=O)Cc1nc(-c2cccs2)oc1C (centres unmarked) — higher, 1.55%
- COCCC/N=C/C1=C(O)CC(C)(C)CC1=O — higher, 5.91%
- N#Cc1c(/N=C/C2C(=O)c3ccccc3C2=O)sc2c1CCCC2 — higher, 6.82%
- CCc1ccc(C2NC(=O)c3[nH]nc(-c4cccs4)c32)cc1 (centres unmarked) — lower, -1.54%
- O=C1C2=C(SCCS2)C(=O)N1c1ccccc1 — lower, 0.0792%
- Fc1cccc(CN2CCN(c3ncccn3)CC2)c1 — lower, -5.57%
- COc1cc2c(cc1OC)C(c1ccccc1)N(C(=O)CSc1nc3ccccc3o1)CC2 (centres unmarked) — higher, 7.02%
- CCOC(=O)C1=C(C)OC(N)=C(C#N)C1c1cnn(C)c1 (centres unmarked) — higher, 1.76%
- O=C(CSc1nnc(COc2ccccc2)n1-c1ccccc1)NC1CCCCC1 — higher, 3.81%
- N#CCNC(=O)[C@H](CC1CCCCC1)OC(=O)N1CC[C@@H](O)C1 — lower, -0.207%
- O=C(O)c1cc(-c2ccccc2)nc2c1C(=O)C(O)=CC2=O — lower, -1.42%
- CCOc1ccc(CCNC(=O)CCCn2c3ccccc3c3cnnc(O)c32)cc1OCC — higher, 13%
- O=C1NC(=O)/C(=C/c2ccc(OCc3cccc4ccccc34)c(Br)c2)N1 — higher, 3.49%
- Cc1ccccc1C(=O)Nc1nnc(S(=O)(=O)N2CCCCC2)s1 — lower, -9.28%
- CCOC(=O)c1ccc2[nH]c3c(c2c1)CCCC3=O — lower, 0.815%
- CCCn1c(C23CC4CC(CC(C4)C2)C3)cn2c3c(=O)n(C)c(=O)n(C)c3nc12 — higher, 4.96%
- CCn1c(Cn2nnc(-c3ccc(C)cc3)n2)nnc1SCC(=O)O — higher, 5.45%
- CCCCSc1nc2c(cc1C#N)CCC2 — lower, 0.317%
- CCCCCCSc1nc2n(n1)C(c1cccc(OC)c1OC)C1=C(O)CCCC1=N2 (centres unmarked) — higher, 5.7%
- Cc1cc(NC(=O)c2cc3c(s2)-c2c(C)cccc2OC3)no1 — lower, -1.37%
- CCC(C)NS(=O)(=O)c1ccc(-c2cc(C(F)(F)F)no2)s1 (centres unmarked) — lower, -5.31%
- COc1cccc(CN2CC=C(c3ccc(F)cc3)CC2)c1 — higher, 3.15%
- Cc1ccc(C(=O)N/C(=C\c2cccs2)C(=O)N2CCN(Cc3ccccc3)CC2)cc1C — higher, 4.09%
- COc1ccc(NC(=O)c2ccc(SC)cc2OC)cn1 — higher, 1.32%
- CCC(=O)NCC12CC3CC(C1)CC(c1ccc(C)cc1)(C3)C2 — lower, -6.09%
- COc1ccccc1CNc1nc2c(S(=O)(=O)c3ccccc3)nnn2c2ccsc12 — lower, -7.46%
- Cc1ccc2[nH]c(SCC(=O)NC3CCCC3)nc2c1 — lower, 0.215%

For `CCCCN(CC)c1cnn(-c2ccccc2)c(=O)c1N`, the “% Inhibition @ 10 uM” value was 0.215% and -2.54%.

From article PMC6919601, “Identification of Plasmodium dipeptidyl aminopeptidase allosteric inhibitors by high throughput screening” (PLoS ONE, 2019)
